Assay results from the supplement of paper PMC8728848.
The other results are listed elsewhere or left out.

Assays:
Assay in all cases: glycan array binding signal (z-score within array); higher = stronger binding
Details in all cases: glycan notation: IUPAC condensed, linker removed
[1] = biological target: Gal(b1-4)GlcNAc(b1-3)Gal(b1-4)GlcNAc(b1-3)Gal(b1-4)Glc
Procedure, shortened: (§1)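 Columns mapping to the same glycan were averaged after glycan names were converted to IUPAC-condensed notation. The data come from 3228 arrays in the Consortium for Functional Glycomics database, limited to those with an available protein sequence. Binding is reported as a within-array Z-score averaged across arrays of one protein sequence and across linkers.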

[2] = biological target: Gal(b1-4)GlcNAc(b1-3)[Fuc(a1-3)[Gal(b1-4)]GlcNAc(b1-6)]Gal(b1-4)Glc
Procedure, shortened: as §1

[3] = biological target: Gal(b1-4)GlcNAc(b1-3)[Gal(b1-4)GlcNAc(b1-6)]Gal(b1-4)Glc
Procedure, shortened: as §1

[4] = biological target: Gal(b1-4)GlcNAc(b1-3)[Gal(b1-4)GlcNAc(b1-6)]Gal(b1-4)GlcNAc(b1-3)Gal(b1-4)Glc
Procedure, shortened: as §1

[5] = biological target: Gal(b1-4)GlcNAc(b1-3)[Gal(b1-4)GlcNAc(b1-6)]Gal(b1-4)GlcNAc(b1-3)[Gal(b1-4)GlcNAc(b1-6)]Gal(b1-4)GlcNAc(b1-3)Gal(b1-4)Glc
Procedure, shortened: as §1

[6] = biological target: Gal(b1-4)GlcNAc(b1-3)[Gal(b1-4)GlcNAc(b1-6)]Gal(b1-4)GlcNAc(b1-3)[Gal(b1-4)GlcNAc(b1-6)]Gal(b1-4)GlcNAc(b1-3)[Gal(b1-4)GlcNAc(b1-6)]Gal(b1-4)GlcNAc(b1-3)Gal(b1-4)Glc
Procedure, shortened: as §1

[7] = biological target: Gal(b1-4)GlcNAc(b1-3)[Gal(b1-4)GlcNAc(b1-6)]Gal(b1-4)GlcNAc(b1-3)[Gal(b1-4)GlcNAc(b1-6)]Gal(b1-4)GlcNAc(b1-3)[Gal(b1-4)GlcNAc(b1-6)]Gal(b1-4)GlcNAc(b1-3)[Gal(b1-4)GlcNAc(b1-6)]Gal(b1-4)GlcNAc(b1-3)Gal(b1-4)Glc
Procedure, shortened: as §1

Gal(b1-6)GalNAc = biological target: Gal(b1-6)GalNAc
Procedure, shortened: as §1

[8] = biological target: Gal3S(b1-3)GalNAc(b1-4)Gal3S(b1-4)Glc
Procedure, shortened: as §1

[9] = biological target: Gal3S(b1-3)[Fuc(a1-4)]GlcNAc
Procedure, shortened: as §1

[10] = biological target: Gal3S(b1-3)[Fuc(a1-4)]GlcNAc(b1-3)Gal(b1-4)Glc
Procedure, shortened: as §1

Gal3S(b1-4)Glc = biological target: Gal3S(b1-4)Glc
Procedure, shortened: as §1

Gal3S(b1-4)GlcNAc = biological target: Gal3S(b1-4)GlcNAc
Procedure, shortened: as §1

[11] = biological target: Gal3S(b1-4)GlcNAc(b1-3)Gal
Procedure, shortened: as §1

[12] = biological target: Gal6S(b1-3)[Fuc(a1-4)]GlcNAc(b1-3)Gal(b1-4)Glc
Procedure, shortened: as §1

GalNAc(a1-3)Gal(b1-4)Glc = biological target: GalNAc(a1-3)Gal(b1-4)Glc
Procedure, shortened: as §1

GalNAc(a1-3)GalNAc = biological target: GalNAc(a1-3)GalNAc
Procedure, shortened: as §1

GalNAc(b1-4)Gal(b1-4)Glc = biological target: GalNAc(b1-4)Gal(b1-4)Glc
Procedure, shortened: as §1

[13] = biological target: GalNAc(b1-4)Gal3S(b1-4)Glc
Procedure, shortened: as §1

[14] = biological target: GalNAc3S(b1-4)Gal3S(b1-4)Glc
Procedure, shortened: as §1

Glc(a1-2)Glc = biological target: Glc(a1-2)Glc
Procedure, shortened: as §1

[15] = biological target: Glc(a1-2)Glc(a1-3)Glc(a1-3)Man(a1-2)Man(a1-2)Man(a1-3)[Man(a1-3)[Man(a1-6)]Man(a1-6)]Man(b1-4)GlcNAc
Procedure, shortened: as §1

Glc(a1-3)Glc = biological target: Glc(a1-3)Glc
Procedure, shortened: as §1

[16] = biological target: Glc(a1-3)Glc(a1-3)Man(a1-2)Man(a1-2)Man(a1-3)[Man(a1-2)Man(a1-3)[Man(a1-2)Man(a1-6)]Man(a1-6)]Man(b1-4)GlcNAc(b1-4)GlcNAc
Procedure, shortened: as §1

[17] = biological target: Glc(a1-3)Glc(a1-3)Man(a1-2)Man(a1-2)Man(a1-3)[Man(a1-3)[Man(a1-6)]Man(a1-6)]Man(b1-4)GlcNAc
Procedure, shortened: as §1

[18] = biological target: Glc(a1-3)Man(a1-2)Man(a1-2)Man(a1-3)[Man(a1-2)Man(a1-3)[Man(a1-2)Man(a1-6)]Man(a1-6)]Man(b1-4)GlcNAc(b1-4)GlcNAc
Procedure, shortened: as §1

Glc(a1-4)Glc = biological target: Glc(a1-4)Glc
Procedure, shortened: as §1

Glc(a1-4)Glc(a1-4)Glc = biological target: Glc(a1-4)Glc(a1-4)Glc
Procedure, shortened: as §1

[19] = biological target: Glc(a1-4)Glc(a1-4)Glc(a1-4)Glc
Procedure, shortened: as §1

[20] = biological target: Glc(a1-4)Glc(a1-4)Glc(a1-4)Glc(a1-4)Glc
Procedure, shortened: as §1

[21] = biological target: Glc(a1-4)Glc(a1-4)Glc(a1-4)Glc(a1-4)Glc(a1-4)Glc
Procedure, shortened: as §1

[22] = biological target: Glc(a1-4)Glc(a1-4)Glc(a1-4)Glc(a1-4)Glc(a1-4)Glc(a1-4)Glc
Procedure, shortened: as §1

[23] = biological target: Glc(a1-4)Glc(a1-4)Glc(a1-4)Glc(a1-4)Glc(a1-4)Glc(a1-4)Glc(a1-4)Glc
Procedure, shortened: as §1

[24] = biological target: Glc(a1-4)Glc(a1-4)Glc(a1-4)Glc(a1-4)Glc(a1-4)Glc(a1-4)Glc(a1-4)Glc(a1-4)Glc
Procedure, shortened: as §1

[25] = biological target: Glc(a1-4)Glc(a1-4)Glc(a1-4)Glc(a1-4)Glc(a1-4)Glc(a1-4)Glc(a1-4)Glc(a1-4)Glc(a1-4)Glc
Procedure, shortened: as §1

[26] = biological target: Glc(a1-4)Glc(a1-4)Glc(a1-4)Glc(a1-4)Glc(a1-4)Glc(a1-4)Glc(a1-4)Glc(a1-4)Glc(a1-4)Glc(a1-4)Glc
Procedure, shortened: as §1

[27] = biological target: Glc(a1-4)Glc(a1-4)Glc(a1-4)Glc(a1-4)Glc(a1-4)Glc(a1-4)Glc(a1-4)Glc(a1-4)Glc(a1-4)Glc(a1-4)Glc(a1-4)Glc
Procedure, shortened: as §1

B1: MIC1 (Toxoplasma gondii), O00834 (protein)
chain: VGPEAYGEASHSHSPASGRYIQQMLDQRCQEIAAELCQSGLRKMCVPSSRIVARNAVGITHQNTLQWRCFDTASLLESNQENNGVNCVDDCGHTIPCPGGVHRQNSNHATRHEILSKLVEEGVQRFCSPYQASANKYCNDKFPGTIARRSKGFGNNVEVAWRCYEKASLLYSVYAECASNCGTTWYCPGGRRGTSTELDKRHYTEEEGIRQAIGSVDSPCSEVEVCLPKDENPPLCLDESGQISRT
glycan array binding signal (z-score) [1]: -0.304 | glycan array binding signal (z-score) [2]: -0.312 | glycan array binding signal (z-score) [3]: -0.312 | glycan array binding signal (z-score) [4]: -0.288 | glycan array binding signal (z-score) [5]: -0.287 | glycan array binding signal (z-score) [6]: -0.287 | glycan array binding signal (z-score) [7]: -0.287 | glycan array binding signal (z-score) (Gal(b1-6)GalNAc): -0.299 | glycan array binding signal (z-score) [8]: -0.297 | glycan array binding signal (z-score) [9]: -0.312 | glycan array binding signal (z-score) [10]: -0.42 | glycan array binding signal (z-score) (Gal3S(b1-4)Glc): -0.312 | glycan array binding signal (z-score) (Gal3S(b1-4)GlcNAc): -0.287 | glycan array binding signal (z-score) [11]: -0.287 | glycan array binding signal (z-score) [12]: -0.461 | glycan array binding signal (z-score) (GalNAc(a1-3)Gal(b1-4)Glc): -0.302 | glycan array binding signal (z-score) (GalNAc(a1-3)GalNAc): -0.31 | glycan array binding signal (z-score) (GalNAc(b1-4)Gal(b1-4)Glc): -0.268 | glycan array binding signal (z-score) [13]: -0.287 | glycan array binding signal (z-score) [14]: -0.285 | glycan array binding signal (z-score) (Glc(a1-2)Glc): -0.307 | glycan array binding signal (z-score) [15]: -0.287 | glycan array binding signal (z-score) (Glc(a1-3)Glc): -0.287 | glycan array binding signal (z-score) [16]: -0.268 | glycan array binding signal (z-score) [17]: -0.287 | glycan array binding signal (z-score) [18]: -0.287 | glycan array binding signal (z-score) (Glc(a1-4)Glc): -0.31 | glycan array binding signal (z-score) (Glc(a1-4)Glc(a1-4)Glc): -0.312 | glycan array binding signal (z-score) [19]: -0.304 | glycan array binding signal (z-score) [20]: -0.287 | glycan array binding signal (z-score) [21]: -0.287 | glycan array binding signal (z-score) [22]: -0.287 | glycan array binding signal (z-score) [23]: -0.286 | glycan array binding signal (z-score) [24]: -0.287 | glycan array binding signal (z-score) [25]: -0.287 | glycan array binding signal (z-score) [26]: -0.287 | glycan array binding signal (z-score) [27]: -0.287
